Laboratory results from PubChem BioAssay AID485313 (National Center for Advancing Translational Sciences (NCATS), 2010).
Out of some 320,000 compounds screened, about 7,600 (2.4%) were called active. Inconclusive means that the source gave no clear call. Such entries were picked first, then a sample of the others. Calls come from the whole dose curve; as a rule, active = well fitted activation curve with a large enough effect; inconclusive = small, poorly fitted or top-dose-only effect; inactive = no such curve, though single readings can be large or run the other way. No potency is given beside an inconclusive call; the fits are too rough.

test: qHTS Assay for NPC1 Promoter Activators; conditions: Huh7 NPC1 promoter luciferase reporter, 24 h; series mostly up to 9.22 µM; activation: at the top concentration; note: nearly all actives have a fitted effect of over 60% in size;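 for activation: reporter is driven by a mutant NPC1 promoter; % of control where 0% means no effect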
In short: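 Stable NPC1-promoter luciferase Huh7 line; cpd (DMSO) 24 h, 37 °C, 5% CO2; Amplite luciferase reagent 10 min RT; luminescence readout. qHTS format.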
Potency is the fitted concentration of half-maximal effect; tags give direction and shape of the fitted curve.

| SMILES | Potency | activation |
| --- | --- | --- |
| Cn1c(SCc2c(F)cccc2Cl)nnc1-c1cnccn1 | inconclusive [activator, partial curve, poor fit] | – |
| O=C(Nc1ccc(Cl)cc1F)c1ccccc1Br | active: 1.78 µM | – |
| CC1CCc2sc(-c3n[nH]c(=S)o3)cc2C1 (stereo not drawn) | inconclusive [activator, single point] | – |
| Nc1nnc(-c2ccc(Cl)c(Cl)c2)s1 | – | inactive: 2.18% |
| C1CCN=C(Nc2nc3c(s2)CCCC3)CC1 | inconclusive [activator, single point] | – |
| CN1CCN(c2ccc(-c3cccc(NC(=O)COc4ccccc4)c3)nn2)CC1 | active: 1.58 µM | – |
| Cc1[nH]c2ccccc2c1/C=N/Nc1nc2ccccc2[nH]1 | inconclusive [activator, single point] | – |
| Brc1ccc(-c2nc3ccccc3s2)s1 | inconclusive [activator, partial curve] | – |
| COc1ccc(NS(=O)(=O)c2cccc(NC(=O)CNC(C)=O)c2)cc1 | – | inactive: 1.68% |
| CC1CCCCN1CCCNC(=O)c1ccc2nc(N3CCCCC3)sc2c1 (stereo not drawn) | inconclusive [activator, full curve] | – |
| Cn1c(O)c(N=NC(=O)c2cc(-c3cccs3)nc3ccccc23)c2ccccc21 | – | inactive: 2.74% |
| Cc1cc(C)n2nc(-c3ccc(Br)cc3)cc2n1 | active: 3.55 µM | – |
| CCCCC(CC)CNCc1cccn1CCN1CCOCC1 (stereo not drawn) | inconclusive [activator, partial curve] | – |
| O=C(Nc1ccc(NC(=O)C2CC2)nc1)c1cccc(F)c1 | inconclusive [activator, single point] | – |
| O=C(/C=C/c1ccccc1)Nc1cccnc1 | active: 2.24 µM | – |
| COc1ccc(-n2c(C)cc(/C=C3\C(=O)NN(c4ccccc4)C3=O)c2C)cc1 | inconclusive [activator, single point] | – |
| CCN(CC(=O)NCc1ccc(Cl)cc1)C(=O)CCc1ccccc1 | – | inactive: -5.49% |
| CC1CCCCN1C(=O)c1cc2c(=O)n3ccccc3nc2s1 (stereo not drawn) | inconclusive [activator, partial curve] | – |
| Cc1nc(N)sc1C(=O)Nc1ccccc1 | inconclusive [activator, single point] | – |
| CC(C)c1ccc2oc3nc(N)c(C(=O)O)cc3c(=O)c2c1 | active: 0.316 µM | – |
| CS(=O)(=O)n1nc(-c2ccc(Cl)cc2)nc1SCc1ccccc1 | inconclusive [activator, single point] | – |
| CN(C(=O)CSc1nnc(-c2ccco2)n1C)C1CCCCC1 | – | inactive: -6.29% |
| Cc1ccc(C(=O)Nc2cc3c(oc2=O)CCCC3=O)cc1 | inconclusive [activator, single point] | – |
| CSCc1ccc(C(=O)Nc2cc(C)cc(C)c2)cc1 | inconclusive [activator, single point] | – |
| CC(C)(C)c1ccc(C(=O)N/N=C/c2cccc(Cl)c2)cc1 | inconclusive [activator, partial curve] | – |
| CCOC(=O)C1CCCN(C(=O)CCC(=O)Nc2ccc3nc(N4CCOCC4)cc(C)c3c2)C1 (stereo not drawn) | inconclusive [activator, partial curve] | – |

| SMILES | Potency | activation |
| --- | --- | --- |
| N#C/C(=C\c1ccc(N2CCOCC2)cc1)c1ccccc1 | active: 2.82 µM | – |
| Cc1ccc(-c2csc(NC(=O)CSc3nc(C)cs3)n2)cc1 | inconclusive [activator, partial curve] | – |
| CCC(C)NC(=O)c1cc2cc3ccc(OC)cc3nc2o1 (stereo not drawn) | inconclusive [activator, partial curve, poor fit] | – |
| Nc1ccc(CSc2ccc(Cl)cc2)cc1 | inconclusive [activator, single point] | – |
| COC(=O)c1cn(CC(=O)NCc2cccs2)c2ccccc12 | inconclusive [activator, partial curve] | – |
| Cn1c2c(c(=O)n(C)c1=O)NC1(N2)C(=O)Nc2ccccc21 (stereo not drawn) | – | inactive: 1.67% |
| COc1ccc(C)c2sc(=NC(=O)c3cccc(N4C(=O)CCC4=O)c3)n(C)c12 | inconclusive [activator, single point] | – |
| O=C1c2ccccc2-c2ccc(C(=O)N3CCCCC3)cc21 | inconclusive [activator, single point] | – |
| O=C(Nc1cccnc1)c1cc2cc(Br)ccc2o1 | active: 2.51 µM | – |
| CC(=O)N(C1=C(N2CCOCC2)C(=O)c2ccccc2C1=O)c1ccc(C(=O)O)cc1 | – | inactive: -44.6% |
| COc1ccc(NC(=O)c2cc(C)on2)cc1OC | – | inactive: -4.4% |
| Cc1c(C(=O)NCc2ccccn2)oc2ccc(Br)cc12 | inconclusive [activator, single point] | – |
| O=C(Nc1ccc2c(c1)OCO2)c1cccc(Cl)c1 | active: 3.16 µM | – |
| Cc1cc(NC(=O)c2ccco2)ccc1NC(=O)c1ccco1 | – | inactive: 17.8% |
| CCN1C(=O)c2ccc(C(=O)Nc3nccs3)cc2C1=O | – | inactive: 0.299% |
| C#CCn1cnc2c(cnn2-c2ccc(C)c(C)c2)c1=O | inconclusive [activator, single point] | – |
| COc1ccc2c(C)nc(Nc3nc(C)c(C)c(=O)[nH]3)nc2c1 | inconclusive [activator, single point] | – |
| CC(C)=NNc1nc2sc3c(c2c(=O)[nH]1)CC(C)(C)OC3 | – | inactive: 0.654% |
| O=C(Nc1nnc(CC2=CCCCC2)s1)Nc1ccccc1F | inconclusive [activator, single point] | – |
| CCOC(=O)c1cc2c(s1)-c1c(C)cccc1OC2 | inconclusive [activator, partial curve] | – |
| O=C(Nc1ccc2c(c1)OCCO2)c1ccccc1 | active: 0.447 µM | – |
| CN=c1scc(-c2ccc([N+](=O)[O-])cc2)n1/N=C/c1ccco1 | inconclusive [activator, full curve] | – |
| O=C1Nc2ccccc2Oc2cc(Oc3ccccc3)ccc21 | – | inactive: 2.27% |
| CNc1ncc(C(=O)c2ccccc2)s1 | inconclusive [activator, partial curve] | – |
| Cc1ccc(/C=N/N2CCN(c3ccccc3)CC2)cc1 | inconclusive [activator, partial curve] | – |
| CSc1ccc(N2C(=O)NC3(CCCCC3)C2=O)cc1 | inconclusive [activator, single point] | – |

| SMILES | Potency | activation |
| --- | --- | --- |
| CN(Cc1cccs1)C(=O)Cc1csc(-c2ccccc2)n1 | inconclusive [activator, single point] | – |
| CCCCCCCC(=O)NNC(=O)Cc1ccccc1 | – | inactive: 0.652% |
| O=C1N/C(=C/c2ccsc2)C(=O)N1c1ccccc1 | inconclusive [activator, partial curve] | – |
| CCOc1ccc(/C=C/C(=O)c2ccccc2)cc1OC | inconclusive [activator, partial curve] | – |
| CC(=O)Nc1ccc2nc(-c3ccc(Br)o3)[nH]c2c1 | inconclusive [activator, partial curve] | – |
| Cc1ccc(-n2ncc(Cl)c2C(=O)NCc2ccccc2)cc1 | inconclusive [activator, single point] | – |
| CN(c1ccccc1)c1ccc(/C=N/N2CCOCC2)cc1 | active: 1.78 µM | – |
| c1coc(-c2nnc(NC3=NCCC3)o2)c1 | inconclusive [activator, partial curve] | – |
| N#Cc1c(NC(=O)C2CC2)sc2c1CCCCC2 | inconclusive [activator, single point] | – |
| Cc1c(Cl)cccc1N=C1SCCN1C(=O)CN1C(=O)NC2(CCCC2)C1=O | – | inactive: -4.12% |
| COC(=O)c1ccc(NC(=O)CN(c2ccc3c(c2)OCO3)S(C)(=O)=O)cc1 | – | inactive: -2.68% |
| O=[N+]([O-])c1ccc(Cc2nnc(-c3ccc(F)cc3)o2)cc1 | inconclusive [activator, full curve] | – |
| COc1ccc(CN2C(=O)c3ccccc3C(/C=N\OCc3ccc(C)cc3)C2=O)cc1 (stereo not drawn) | – | inactive: 5.34% |
| CCCn1c(Nc2cccc(OC)c2)nc2ccccc21 | – | inactive: 0.0627% |
| c1coc(C2Nc3ccccc3-c3nc4ccccc4n32)c1 (stereo not drawn) | inconclusive [activator, partial curve] | – |
| O=C(CN1CCCCC1)Nc1scc2c1c(=O)oc1ccccc12 | inconclusive [activator, single point] | – |
| CCOC(=O)Nc1ccc2c(c1)OCO2 | inconclusive [activator, single point] | – |
| CCC(C)(C)c1ccc(OCCCC[n+]2cccc(C)c2C)c(C(C)(C)CC)c1 | – | inactive: -29.6% |
| Cc1nn(-c2ccccc2)c2sc(C(=O)N3CCOCC3)cc12 | inconclusive [activator, single point] | – |
| Cc1ccc2nc(-c3ccc(NC(=O)COC(=O)c4cncc(Br)c4)cc3)sc2c1 | inconclusive [activator, partial curve] | – |
| O=C1CN(c2ccccc2)C(=S)N1C(=O)c1ccccc1 | inconclusive [activator, single point] | – |
| O=C(Nc1cc(Cl)ccc1N1CCCCC1)c1cccs1 | – | inactive: -0.49% |
| Cc1ccnc2ccc(-c3nc4ccccc4o3)cc12 | inconclusive [activator, single point] | – |
| O=C(Nc1ccc(OC(F)(F)F)cc1)C1=NCCN1 | inconclusive [activator, single point] | – |
| CSc1ccc(-c2nnn(Cc3ccc(C)cc3)n2)cc1 | inconclusive [activator, single point] | – |
| O=C(O)CCN1C(=O)/C(=C/c2ccc(-c3nc4ccccc4s3)o2)SC1=S | – | inactive: 4.97% |
